# The full ranking holds about 33,000 sequences; the median of “E-score (-0.5 to 0.5)” is about -0.012, and the highest 2% start at about 0.29. This is one part of the list.
# Molecular target: T1, Ybr033w (UniProt P38073)
# T1 sequence: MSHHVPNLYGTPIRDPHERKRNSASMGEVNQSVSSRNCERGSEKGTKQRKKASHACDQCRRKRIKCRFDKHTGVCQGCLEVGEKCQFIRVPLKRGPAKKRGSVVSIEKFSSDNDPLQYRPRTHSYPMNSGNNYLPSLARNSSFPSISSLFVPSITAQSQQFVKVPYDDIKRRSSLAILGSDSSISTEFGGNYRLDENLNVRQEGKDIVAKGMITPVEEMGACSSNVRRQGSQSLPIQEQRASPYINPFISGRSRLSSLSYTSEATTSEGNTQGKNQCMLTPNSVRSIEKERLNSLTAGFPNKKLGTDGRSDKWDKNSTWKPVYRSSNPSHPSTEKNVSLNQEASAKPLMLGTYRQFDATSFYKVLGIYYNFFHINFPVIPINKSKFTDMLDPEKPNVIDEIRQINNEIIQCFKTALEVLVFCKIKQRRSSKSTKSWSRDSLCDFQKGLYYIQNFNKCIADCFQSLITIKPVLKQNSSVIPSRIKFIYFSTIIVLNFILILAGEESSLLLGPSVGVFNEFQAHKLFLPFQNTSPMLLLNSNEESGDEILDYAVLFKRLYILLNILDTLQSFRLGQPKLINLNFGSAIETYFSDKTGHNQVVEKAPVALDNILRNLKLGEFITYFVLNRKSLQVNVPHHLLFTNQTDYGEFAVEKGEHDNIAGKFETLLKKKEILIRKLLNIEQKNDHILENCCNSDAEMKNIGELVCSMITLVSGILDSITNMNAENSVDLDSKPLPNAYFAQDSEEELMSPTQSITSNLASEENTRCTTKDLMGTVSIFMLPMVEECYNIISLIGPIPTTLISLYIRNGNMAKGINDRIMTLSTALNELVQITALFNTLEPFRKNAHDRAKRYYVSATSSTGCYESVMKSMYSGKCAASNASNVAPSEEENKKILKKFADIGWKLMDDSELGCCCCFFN
# Assay: PBM E-score (8-mer binding enrichment) (E-score (-0.5 to 0.5)); higher = stronger / more preferred TF binding; most listed sequences are background and not binding sites
# Conditions: protein concentration: 200 nM; construct: GST-full length
# Summary of the method: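 PURExpress in vitro transcription/translation supplied GST-tagged yeast transcription factors, either full-length or DNA-binding domain. Applied at about 100-200 nM to universal all-10-mer Agilent arrays double-stranded by primer extension, the bound protein was detected with fluorescent anti-GST. E-scores, modified Wilcoxon-Mann-Whitney statistics, were given by the Universal PBM Analysis Suite to ungapped eight-base words pooled with their reverse complements after masliner normalisation.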
row,Sequence,PBM E-score
1,AGGCCCCA,-0.233
2,GATGCAGA,-0.00396
3,CCTGAACG,-0.172
4,CTAACGAG,-0.0146
5,GGATCCTA,-0.162
6,ATTTCCAA,0.104
7,CCATCCAG,-0.135
8,CTCGCGGA,-0.166
9,AAATAGCA,0.106
10,GACATTGA,0.0812
11,AGCTTTAT,-0.065
12,CACTAGAC,-0.105
13,AGCTCACA,-0.0973
14,ACTGCTAA,-0.124
15,ATAGTGCA,0.0588
16,ACGAGCGT,-0.148
17,CGTCTGGA,-0.288
18,AGCCATGC,-0.0872
19,AACTTAGA,0.0362
20,AGATGGGG,-0.243
21,AAGTGGAG,0.215
22,AATACAAT,0.107
23,AACGGTGA,-0.0975
24,ATCCGTTC,0.0406
25,CACGACGA,-0.103

row,Sequence,PBM E-score
1,CAAATTAA,0.212
2,ATGAGATC,0.107
3,CAAAACGA,0.0643
4,GAGGATCC,-0.076
5,GTCTCGTA,-0.0206
6,ACACATGC,-0.0705
7,AATCATGC,-0.0625
8,CTCAAGCA,-0.0241
9,ATCACCTA,-0.0627
10,TAAACAGA,0.142
11,CATTCTGC,0.09
12,AGGCACCA,0.0136
13,AATCGATA,0.283
14,ACCGTTAT,-0.128
15,ACTCATCA,0.0418
16,CCTCCAAG,-0.176
17,ATTAACAA,0.382
18,GAACACCA,-0.0397
19,AGAGCCCG,-0.213
20,AATAGTTA,0.225
21,ACGCCTAC,-0.109
22,GAATGACC,-0.0971
23,CCTTCCGC,-0.263
24,ACCCATCC,-0.181
25,CATTAGTA,0.204

row,Sequence,PBM E-score
1,AAGTGGGG,-0.146
2,GAGCAATA,0.0978
3,AGCACTTC,0.0586
4,TCGATAGA,0.0992
5,TCATCAAA,0.0145
6,TCGTTAAA,0.104
7,CACATCTC,0.0841
8,AGGATAAG,-0.0801
9,CACCTGAG,-0.0721
10,CGAATATC,0.173
11,GACCAGGA,-0.0704
12,TGGGTGAA,0.15
13,GCGGCTAA,-0.0371
14,ACAGGAAT,0.209
15,CGATCGAC,0.0174
16,ATTCAATA,0.266
17,TAGCATGA,0.111
18,TATTCTAA,0.262
19,TTCATCAA,0.184
20,TTCGTCAA,0.0948
21,CCCCATGC,-0.226
22,AAGAACGT,0.135
23,CTACTATC,0.226
24,ACGGGCAA,-0.22
25,CAGACCCG,-0.0987

row,Sequence,PBM E-score
1,ATCAGTAC,-0.0454
2,GTCTAAAC,0.179
3,CAATTCAG,-0.169
4,AAGCCAAC,-0.00357
5,AATTATAG,0.284
6,GCGTATGA,0.0532
7,AACCAATG,0.206
8,ATCAACAT,0.238
9,CTAGCGAG,-0.177
10,AGGTAAGA,0.034
11,ATTTTCAC,0.226
12,TGCCTCCA,-0.217
13,CAGCGTGC,-0.0882
14,CCAGTCCC,-0.204
15,CTAGAGAC,-0.0751
16,AACTACCG,0.0353
17,CTCGGAAG,-0.0159
18,GACCTCTC,0.0317
19,GATAAACC,0.236
20,GGGGTTGA,-0.0394
21,ACATGTGC,-0.147
22,CGGGTCGA,-0.175
23,CCTACCGA,-0.1
24,AAAGGGTG,-0.082
25,GATGCTGC,-0.0182

row,Sequence,PBM E-score
1,ACGGATTG,-0.00563
2,CGTTGGCA,-0.13
3,AACATCGT,0.00721
4,ACCGTGTG,-0.114
5,GAGGTCTA,-0.0889
6,AATTACTC,0.328
7,CGCAATCC,0.00791
8,GTTAGGCA,-0.00649
9,ACTGTCAG,-0.0137
10,ACCCCTCT,-0.199
11,AGCTAGAG,-0.0778
12,CGGCTTTC,-0.147
13,ACTCCTTC,-0.074
14,CCAAATAG,0.141
15,CTGAAAAC,0.0496
16,CGGTGTAC,-0.192
17,CATAAATA,0.169
18,GAGGTATC,-0.186
19,TCGAACGA,-0.133
20,ATACTGAC,0.166
21,AACGAGCC,-0.148
22,AGGACTCC,-0.193
23,AGCTTGCC,-0.231
24,CGCCCCAC,-0.171
25,AGTATATA,0.389

row,Sequence,PBM E-score
1,GCGATGGA,-0.0765
2,CCACTAGA,-0.154
3,CCGGCTAC,-0.152
4,AGACTGTC,-0.167
5,ACGTGGAG,-0.0122
6,CCCACGAG,-0.05
7,CTTGCCTC,-0.182
8,CCTCTTCG,-0.0407
9,ATGCCCTA,-0.0692
10,CTGACGCC,-0.259
11,AAAGGTAG,-0.0571
12,CTGCCCCC,-0.314
13,ACCACCTA,-0.178
14,ATCCCTAG,0.0382
15,ACGCGGTC,-0.106
16,CACTGAAC,0.171
17,GCATTGCA,0.00754
18,AAGGGCAC,-0.249
19,CGGAGTCC,-0.107
20,CGCGGCTA,0.0286
21,ACGCAACC,-0.138
22,AGCTCATG,0.0152
23,CTCTAAAG,-0.0599
24,ACTCATAA,0.16
25,AAGAGCCA,-0.0198

row,Sequence,PBM E-score
1,GACACATC,-0.11
2,CCTTTTAA,-0.0359
3,CTGCGATA,-0.0208
4,GGGATGTA,0.00478
5,AAGAGACC,0.0597
6,ATCCAATG,0.0291
7,CTCATGGA,-0.0851
8,GGGGAAAC,-0.083
9,ACGACCGA,-0.0431
10,GTATTGAC,0.0204
11,GACACTCC,-0.0616
12,CCAGGAGC,-0.302
13,CAATCGAA,0.0884
14,CAAGCCCA,-0.18
15,TAGAGGCA,-0.0846
16,GTTTCTCA,0.0503
17,AACTGGTG,-0.23
18,CACCATCA,0.0127
19,AAGCTGGA,-0.132
20,TAAAGGGA,-0.0178
21,AGATACGG,0.021
22,AAGTCCGA,0.00405
